Reference: patent US20100330072A1 (published 2010)

T1: recombinant mature myostatin (human, produced in E. coli) (human) (UniProt O14793)
T1 sequence (looked up): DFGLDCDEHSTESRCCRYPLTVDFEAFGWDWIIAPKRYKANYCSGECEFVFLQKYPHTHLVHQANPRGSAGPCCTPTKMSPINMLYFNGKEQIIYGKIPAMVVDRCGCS

T2: recombinant mature myostatin (human, produced in E. coli) (human, UniProt O14793 267-375)
T2 construct: mature; also called GDF-8
T2 sequence (looked up): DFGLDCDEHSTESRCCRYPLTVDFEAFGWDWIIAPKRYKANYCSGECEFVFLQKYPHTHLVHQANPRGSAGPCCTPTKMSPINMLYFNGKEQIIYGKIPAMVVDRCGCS


Tests used:
[1] = target: T1, recombinant mature myostatin (human, produced in E. coli) (human); experiment: cell-based or functional assay
[2] = target: T2, recombinant mature myostatin (human, …); experiment: BIAcore, myostatin immobilized on CM5 chip

Binder	IC50 (nM), C2C12 pMARE-luc assay [1] [nM]	Kd [2] [nM]
Myostatin-TN12-34 peptibody (Fc fusion) MAHWCEQGPWRYGNICMAYGGGGG[letters of human IgG1 Fc left out]GGGGGAHWCEQGPWRYGNICMAY	30	
Myostatin-Linear-20 peptibody (Fc fusion) MYREMSMLEGLLDVLERLQHYGGGGG[letters of human IgG1 Fc left out]	11	
mL2-7 peptibody (Fc fusion) MGAQRMEMLESLFELLKEIVPMSKAGLEGGGGG[letters of human IgG1 Fc left out]	90.2	
mL2-9 peptibody (Fc fusion) MGAQQMELLDSLFELLKEIVPKSQPALEGGGGG[letters of human IgG1 Fc left out]	106	
Myostatin-2xTN8-19 kc peptibody (Fc fusion, Conflict not resolved; also called 2xmTN8-19 (parent)) [letters of human IgG1 Fc left out]GSGSATGGSGSTASSGSGSATGQGHCTRWPWMCPPYGSGSATGGSGSTASSGSGSATGQGHCTRWPWMCPPY		~29
